# Test results reported in publication PMC6919601, “Identification of Plasmodium dipeptidyl aminopeptidase allosteric inhibitors by high throughput screening” (PLoS ONE, 2019).
# Several values for one entry are separate records, joined by “and”; a condition that tells them apart may be missing. Equal values may be shown once. About 230 (0.21%) of roughly 110,000 compounds showed an effect of 50% or more. The list shows a part of the results.
# Biological target: DPAP1 (Plasmodium falciparum, UniProt Q8IIJ9)
# Sequence (Q8IIJ9 whole entry, looked up): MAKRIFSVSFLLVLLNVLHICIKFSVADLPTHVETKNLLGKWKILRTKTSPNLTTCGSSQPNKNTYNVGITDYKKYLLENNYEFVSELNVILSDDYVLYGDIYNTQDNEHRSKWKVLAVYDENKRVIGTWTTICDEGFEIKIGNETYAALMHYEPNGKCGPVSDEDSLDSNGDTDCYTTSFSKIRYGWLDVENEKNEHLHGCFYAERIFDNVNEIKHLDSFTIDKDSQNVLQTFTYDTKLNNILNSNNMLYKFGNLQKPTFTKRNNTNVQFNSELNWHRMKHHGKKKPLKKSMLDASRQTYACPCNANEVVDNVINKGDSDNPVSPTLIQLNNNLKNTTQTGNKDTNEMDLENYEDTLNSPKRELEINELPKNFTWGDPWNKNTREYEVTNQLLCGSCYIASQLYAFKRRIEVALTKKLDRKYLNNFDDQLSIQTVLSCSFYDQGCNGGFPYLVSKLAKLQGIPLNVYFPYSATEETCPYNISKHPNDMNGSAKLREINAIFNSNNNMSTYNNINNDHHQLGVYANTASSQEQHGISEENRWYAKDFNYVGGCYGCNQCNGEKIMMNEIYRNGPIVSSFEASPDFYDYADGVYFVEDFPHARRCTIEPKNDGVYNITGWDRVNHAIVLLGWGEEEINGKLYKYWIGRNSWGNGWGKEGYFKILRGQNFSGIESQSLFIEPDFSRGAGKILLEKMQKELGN
# Experiment: primary screen, percent inhibition; read by cleavage of a fluorogenic dipeptide substrate; higher = more effect of the substance
# Design: species or system P. falciparum D10 trophozoite lysates; single well
# 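Note: 30 min substrate incubation versus DMSO and 10 µM JCP410 controls.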
row,Compound,% Inhibition @ 10 uM
1,CC(C)(C)NC(=O)COc1ccccc1C#N,-5.32%
2,COCCCNC(=O)CCN1C(=O)c2ccccc2Sc2ncccc21,-0.397%
3,COc1cc2c(cc1OC)CN(Cc1ccsc1)CC2,0.708%
4,CC/C(=N\O)c1c(C)n(C)c2ccccc12,-0.744%
5,O=C(CCCn1nc(-c2ccccc2)c2cc(Cl)ccc21)NCc1ccccn1,3.45%
6,CC(C)C(=O)Nc1cccc(N2CCN(CCCN3C(=O)C4CCCCN4C3=O)CC2)c1 (stereo not drawn),-11.9%
7,CC1CN(c2oc(COc3ccc(Cl)cc3)nc2C#N)CC(C)O1 (stereo not drawn),-3.16%
8,CCCCSCCCNC(=O)CS(=O)Cc1nc(-c2cccc(C)c2)oc1C (stereo not drawn),0.689%
9,Fc1cccc(CN2CCOCC2)c1,-4.14%
10,Cc1cccc(-n2c(C)cc(/C=C3\C(=N)N4N=C(N5CCCC5)SC4=NC3=O)c2C)c1,-3.44%
11,CSCCC(Nc1c2ccccc2nc2ccccc12)C(=O)O (stereo not drawn),1.74%
12,COc1cc(CN2CC(C)OC(C)C2)cc(Br)c1O (stereo not drawn),-1.5%
13,COc1cc(/C=C\C(=O)Nc2c3c(nn2-c2ccc(F)cc2)CSC3)cc(OC)c1OC,5.76%
14,COc1cccc(N2CCN(Cc3nc(O)c4ccccc4n3)CC2)c1,0.605%
15,O=C1NC(=S)N/C1=C/c1cccc(O)c1,0.345%
16,Cc1nnc(N2CCCC(C(=O)NCc3cccnc3)C2)c2nn(-c3ccc(Cl)cc3)c(C)c12 (stereo not drawn),10.1%
17,CCOC(=O)C1=C(NC(=O)c2ccc(C)cc2)S/C(=C\c2cc3c(cc2OC)OCO3)C1=O,-1.92%
18,CCC1CCCCN1CCNC(=O)C1CCN(S(=O)(=O)c2c(C)noc2C)CC1 (stereo not drawn),-0.148%
19,Cc1cc(C)n2nc(SC(C)C(=O)NCc3ccc4c(c3)OCO4)nc2n1 (stereo not drawn),-2.26%
20,CCn1c(/C=C/c2ccc(Cl)cc2)nc2ccccc21,-5.92%
21,O=C(NCc1ccc(F)cc1)C1CC(=O)N(c2ccc(F)cc2)C1 (stereo not drawn),1.34%
22,O=C1C=C(c2ccc(Cl)cc2)C(=O)c2ccccc21,2.13%
23,COc1ccc(C2C3=C(O)CC(C)(C)CC3=Nc3ccccc3N2C(C)=O)cc1 (stereo not drawn),-7.54%
24,COc1ccc(CC(=O)O/N=C(\N)c2ccc(C)cc2)cc1OC,-3.28%
25,O=Cc1c[nH]c2ccc(S(=O)(=O)N3CCN(Cc4ccccc4)CC3)cc12,0.718%
26,COc1ccc(/C=C2N=C(/C=C/c3ccccc3)OC/2=O)cc1OC,2.77%

row,Compound,% Inhibition @ 10 uM
1,O=C1/C(=C/c2ccc3c(c2)OCO3)CC/C1=C\c1ccc2c(c1)OCO2,2.94%
2,COc1ccc(Br)cc1C1C(C#N)=C(N)Oc2cc(N)ccc21 (stereo not drawn),1.4%
3,Cc1ccc(-n2c(SCCc3ccccc3)nc3c(c2=O)C2(CCCC2)Cc2ccccc2-3)cc1,3.01%
4,O=C(OCCNc1c(F)c(F)nc(F)c1F)c1ccccc1,6.82%
5,Cc1[nH]nc2c1C(c1cc(Br)cs1)C(C#N)=C(N)O2 (stereo not drawn),4.8%
6,C#CCn1c(CCCO)nc2ccccc21,1.12%
7,CCOC(=O)c1c(NC(=O)C#Cc2ccccc2)sc2c1CCC2,-2.13%
8,CCN1CCN(C(=O)c2ccc(-c3nc(CS(=O)(=O)c4ccc(C)cc4)c(C)o3)cc2)CC1,8.46%
9,Cc1cc2c(c(=O)n1Cc1cccnc1)C(c1ccc(Cl)cc1)C(C#N)=C(N)O2 (stereo not drawn),0.343%
10,COCCN1C(=O)c2ccccc2C(C(=O)NCc2ccc(F)cc2)C1c1cccs1 (stereo not drawn),3.54%
11,CC1CCC(NC(=O)C(C)n2sc3ccccc3c2=O)CC1 (stereo not drawn),-8.41%
12,COc1ccc(S(=O)(=O)NCC(=O)Nc2ccc3c(c2)OCO3)cc1,0.323%
13,NS(=O)(=O)c1ccc(C23CC4CC(CC(C4)C2)C3)cc1,-2.66%
14,CC1(C)CC2=NC3=C(C(=O)CC(C)(C)C3)C(c3ccc(C(F)(F)F)cc3)C2=C(O)C1 (stereo not drawn),2.76%
15,Cc1cc(C)n(-c2ccc(C(=O)Nc3cccnc3)cc2)n1,-1.43%
16,COc1cc2c(cc1OC)C1=C(C#N)CN(c3ccc(Br)cc3)CN1CC2,2.68%
17,O=C1c2cccc3cccc(c23)C(=O)N1c1ccc2c(c1)OCO2,-1.2%
18,COc1ccc(CNc2c3c(nc4nncn24)CCC3)cc1,-5.33%
19,COc1ccccc1CN1CC(C(=O)NC2CCCCC2)CC1=O (stereo not drawn),0.514%
20,O=C(c1ccc(C(=O)N2CCCC2)cc1)N1CCCC1,3.01%
21,O=C(Nc1cccc(Cl)c1)c1ccc(F)c(S(=O)(=O)N2CCOCC2)c1,-9.4%
22,O=C(C1c2ccccc2C(=O)N(C2CCCC2)C1c1cccs1)N1CCN(Cc2ccccc2)CC1 (stereo not drawn),-7.52%
23,CCOc1cccc2cc(-c3csc(NC(=O)CCC(=O)NCCCN4CCCC4)n3)c(=O)oc12,9.17%
24,N#CC1=C(N)Oc2c(c(=O)oc3ccccc23)C1c1ccccc1OCc1ccccc1Cl (stereo not drawn),10.8%
25,O=C(OC[C@@H]1CCCN2CCCC[C@H]12)c1cccc(Br)c1,-3.82% and -4.01%
